The campaign covered roughly 390,000 compounds. About 17,000 (4.4%) were called active. This list was built around the results that the source calls inconclusive (neither active nor inactive); the mix of calls is not that of the screen. Calls follow the shape of the dose curve; as a rule, active = well fitted inhibition curve with a large enough effect; inconclusive = small, poorly fitted or top-dose-only effect; inactive = no such curve, though single readings can be large or run the other way. Potencies of inconclusive entries are doubtful fits and often do not repeat.
molecular target: Lysine-specific demethylase 4A (Homo sapiens) (UniProt O75164); experiment: qHTS Assay for Inhibitors of JMJD2A-Tudor Domain; conditions: AlphaScreen JMJD2A-Tudor / H3K4me3 peptide binding; activity change, negative = inhibition: at 114 µM (top of the series); also: nearly all actives have a fitted effect of over 50% in size
% is scaled to controls: 0 for no effect and ±100 for the full control effect; potency is read from the fitted curve at half-maximal effect; tags tell the direction and shape of the fitted curve.

UniProt O75164, sequence (O75164 whole entry, looked up, the tested form may be a part): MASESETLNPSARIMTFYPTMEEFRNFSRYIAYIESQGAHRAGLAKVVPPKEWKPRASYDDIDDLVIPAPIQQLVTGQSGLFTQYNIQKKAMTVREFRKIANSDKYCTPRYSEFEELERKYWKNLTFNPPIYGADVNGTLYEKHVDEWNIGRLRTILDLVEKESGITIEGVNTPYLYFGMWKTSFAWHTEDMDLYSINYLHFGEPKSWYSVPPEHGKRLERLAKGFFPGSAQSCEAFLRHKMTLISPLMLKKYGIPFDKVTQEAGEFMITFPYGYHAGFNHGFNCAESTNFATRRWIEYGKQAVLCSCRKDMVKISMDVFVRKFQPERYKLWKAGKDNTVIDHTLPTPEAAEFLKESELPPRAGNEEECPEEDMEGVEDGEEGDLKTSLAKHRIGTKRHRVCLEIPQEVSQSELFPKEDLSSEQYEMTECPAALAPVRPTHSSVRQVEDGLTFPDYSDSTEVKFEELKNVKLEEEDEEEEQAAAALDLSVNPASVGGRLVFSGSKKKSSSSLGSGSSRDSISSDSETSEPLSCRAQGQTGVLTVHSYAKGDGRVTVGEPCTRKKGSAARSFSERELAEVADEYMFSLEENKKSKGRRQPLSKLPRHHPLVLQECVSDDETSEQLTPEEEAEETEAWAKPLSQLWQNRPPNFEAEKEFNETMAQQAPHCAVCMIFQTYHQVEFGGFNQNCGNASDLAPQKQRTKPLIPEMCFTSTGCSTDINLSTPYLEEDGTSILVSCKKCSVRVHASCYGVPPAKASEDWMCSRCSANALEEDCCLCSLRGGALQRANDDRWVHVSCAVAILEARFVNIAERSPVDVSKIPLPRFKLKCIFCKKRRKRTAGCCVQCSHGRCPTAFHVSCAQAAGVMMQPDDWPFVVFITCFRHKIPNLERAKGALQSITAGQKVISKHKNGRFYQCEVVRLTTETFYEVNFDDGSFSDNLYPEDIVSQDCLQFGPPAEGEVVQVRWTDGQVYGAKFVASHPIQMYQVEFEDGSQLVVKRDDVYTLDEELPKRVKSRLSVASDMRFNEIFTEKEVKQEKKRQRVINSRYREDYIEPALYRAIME

Potency, inactive:
COc1cc(-n2c(=O)c3ccccc3n(Cc3cccc(Cl)c3)c2=O)cc(OC)c1OC
CCn1c(=O)c2sccc2n2c(CCC(=O)Nc3ccc(F)cc3)nnc12
CCOC(=O)c1ccccc1NC(=O)N1CCC(CN2CCOCC2)CC1
O=C(Nc1nnc(-c2ccccc2Cl)o1)c1nc2ccccc2s1
Cc1nc(-c2ccc(F)cc2)sc1CCNC(=O)c1cccs1
C=CCc1ccc(OCCCOc2ccc(C(=O)O)cc2)c(OC)c1
Cc1ccc(S(=O)(=O)Cc2ccc(C(=O)N3CCCCCC3)o2)cc1
O=[N+]([O-])c1cccc(-c2ncc3ccccn23)c1
CCc1cc(C(=O)OC)c(NC(=O)CCC(=O)O)s1
O=C(Cn1nc(Cc2cccnc2)c2ccccc2c1=O)Nc1ccc(F)c(Cl)c1
COc1cccc(C(CNC(=O)C(c2ccccc2)c2ccccc2)N(C)C)c1 (centres undefined)
CC(C)(C)n1c(O)c2ccc(C(=O)N=NC(=O)c3ccccc3)cc2c1O
CCOC(=O)N1C(=O)NC(=O)C1c1ccccc1 (centres undefined)
CCc1ccc(-n2nc(CO)c(C(=O)NCc3ccccc3Cl)n2)cc1
CCN(C(=O)CSc1nnc(Nc2ccc(OC)cc2)s1)C1CCS(=O)(=O)C1 (centres undefined)
COc1ccc(Cc2nnc(NC(=O)Nc3cccc(OC)c3)s2)cc1
COc1ccc(C2C3C=CCC(c4cccc(-c5ccc(C)cc5)c4)C3C(=O)N2Cc2ccccc2)cc1Cl (centres undefined)
CCCn1c(=O)c(C#N)cn(C2CC2)c1=O
Cc1nc(-c2ccc(C(=O)Nc3cc(S(N)(=O)=O)ccc3C)cc2)cs1
CCc1nnc(NC(=O)CSc2nnc(Cc3ccccc3)n2-c2ccccc2)s1
O=C(O)/C=C\C(=O)Nc1ccc(Oc2ccc(Br)cc2)cc1
COc1ccc(CCNC(=O)c2ccc(Cn3c(=O)c4cccn4c4cccnc43)cc2)cc1OC

Potency, active:
Cc1ccc2c(C)c(C(=O)N(Cc3ccc(N(C)C)cc3)Cc3ccco3)oc2c1C 17.8 µM
CC(C)Oc1ccc(C(=O)NCC(c2ccc(N(C)C)cc2)N2CCc3ccccc32)cc1 (centres undefined) 7.08 µM
CCOC(=O)Cc1csc(NC(=O)c2ccco2)n1 79.4 µM
COc1ccccc1CNCc1cc(OC)c(OC)c(OC)c1 39.8 µM
Cc1ccsc1/C=N/N1CCN(Cc2ccccc2)CC1 56.2 µM
CN(C)c1cccc2c1C(=O)c1ccccc1C2=O 44.7 µM
O=c1[nH]c2ccccc2c(O)c1O 50.1 µM
C#CCOCCOCCOCCNc1nc(N2CCN(C(=O)CCCCCCCCCCNC(=O)[C@H]([C@@H](C)CC)n3cc(CCCCN=C(N)N)nn3)CC2)nc(N2CCN(C(=O)CCCCCCCCCCNC(=O)[C@H](CCCCN)n3cc(C)nn3)CC2)n1 22.4 µM
COc1cc(C)ccc1OCc1cc(C(=O)N2CCCCCC2)no1 15.8 µM
ClC(CCN1CCN(Cc2ccccc2)CC1)c1ccccc1 (centres undefined) 50.1 µM
CCOc1ccc(-c2nnc(SCC(=O)Nc3ccc(C)cc3C)o2)cc1 79.4 µM
O=C(CSc1nc2ccccc2s1)Nc1cc(S(=O)(=O)N2CCOCC2)ccc1O 50.1 µM
Fc1cccc(CN2CCSCC2)c1 20 µM
COC(=O)Cc1[nH]c(=S)[nH]c1C(=O)OC 3.16 µM
CN(C)/N=C/c1ccc(Sc2ccccc2[N+](=O)[O-])o1 39.8 µM

Potency, inconclusive:
OCCC1CN(Cc2cccc(-c3ccco3)c2)CCN1Cc1ccsc1 (centres undefined) 12.6 µM [inhibitor, full curve, poor fit]
CNC(=S)N/N=C/c1cc(C)n(-c2ccc(Cl)c(Cl)c2)c1C 70.8 µM [inhibitor, single point]
Fc1ccc(-n2cc(-c3ccccc3)c3c(=S)nc[nH]c32)cc1 56.2 µM [inhibitor, partial curve]
CCN(c1ccccc1)S(=O)(=O)c1nnc(NC(=O)C2CCCCC2)s1 12.6 µM [inhibitor, full curve]
CC1CCN(CCOc2ccc(C(=O)c3ccccc3)cc2)CC1 12.6 µM [inhibitor, full curve, poor fit]
O=C(C1=C[C@H](c2coc3ccccc3c2=O)C[C@H](OCc2ccc(CO)cc2)O1)N1CCN(Cc2ccc3c(c2)OCO3)CC1 56.2 µM [inhibitor, partial curve]
COc1ccc(CCN2C(=O)C(O)=C(C(C)=O)C2c2ccccc2OC)cc1OC (centres undefined) 79.4 µM [inhibitor, partial curve]
Cc1ccc(N2C(=O)c3cccc4c(N)ccc(c34)C2=O)c2cccnc12 89.1 µM [inhibitor, partial curve]
Cc1ccc(N(CC(=O)N2CCN(c3ccccc3)CC2)S(=O)(=O)c2c(C)noc2C)cc1 11.2 µM [inhibitor, full curve, poor fit]
COc1ccc(S(=O)(=O)n2nc(C)c(S(=O)(=O)N3CCCCCC3)c2C)cc1C 89.1 µM [inhibitor, single point]
CC1(C)CC(=O)c2sc(NC(=O)CN3CCCCC3)nc2C1 28.2 µM [inhibitor, partial curve]
COc1cccc(CNC(=O)c2sc3ncccc3c2-n2c(C)ccc2C)c1OC 50.1 µM [inhibitor, partial curve]
O=C(NCC(c1ccco1)N1CCCCC1)c1ccc(COc2ccccc2)cc1 (centres undefined) 79.4 µM [inhibitor, partial curve]
O=C(N/N=C\CCc1ccccc1)c1ccco1 25.1 µM [inhibitor, single point]
CN1CCC(Oc2ccccc2Sc2ccc(C(F)(F)F)cc2)CC1 79.4 µM [inhibitor, single point]
COc1cccc(C2C(C(=O)Nc3ccccc3OC)=C(C)Nc3nc(-c4ccco4)nn32)c1 (centres undefined) 79.4 µM [inhibitor, single point]
Cc1[nH]c2ccccc2c1/C=N/Nc1nc(Nc2ccccc2)nc(N2CCOCC2)n1 12.6 µM [inhibitor, partial curve]
NC(=O)c1ccc(NC(=O)COC(=O)CCCc2c[nH]c3ccccc23)cc1 20 µM [inhibitor, full curve]
CC(=O)NC(CC(=O)O)C(=O)O (centres undefined) 89.1 µM [inhibitor, single point]
COc1ccc(N2CCN(C(=O)c3cn(CC4CCCCC4)nn3)CC2)cc1 63.1 µM [inhibitor, partial curve, poor fit]
COc1ccc(Nc2nc3nonc3nc2N2CCCCC2)cc1 56.2 µM [inhibitor, partial curve, poor fit]
c1ccc(Nc2nc3ccccc3[nH]2)nc1 35.5 µM [inhibitor, partial curve, poor fit]
Nc1ccc2c(c1)C(=NO)c1ccccc1-2 56.2 µM [inhibitor, partial curve]
CCOC(=O)/C(C#N)=N/Nc1ccc(S(=O)(=O)N2CCc3ccccc32)cc1 31.6 µM [inhibitor, single point]
Oc1cccc2c(NC(=S)Nc3ccc(OC(F)F)cc3)cccc12 50.1 µM [inhibitor, partial curve]
COC(=O)c1ccc2nc(C)cc(Nc3ccc(N(C)C)cc3)c2c1 100 µM [inhibitor, partial curve, poor fit]
COc1cc(/C=C2\SC(=S)N(CCC(=O)N3CCCCC3)C2=O)cc(OC)c1OC 22.4 µM [inhibitor, full curve, poor fit]
CCN1C(=O)/C(=C\N2CCCCCC2)SC1=S 79.4 µM [inhibitor, partial curve]
CCc1nn(CC(=O)NCc2ccccc2)c(=O)c2cccn12 89.1 µM [inhibitor, partial curve]
COC(=O)CCCCC(=O)C1C(=O)CC(C)(C)C(C(=O)OC)C1=O (centres undefined) 22.4 µM [inhibitor, partial curve, poor fit]
COc1cc(OC)c(OC)cc1/C=C1\Oc2cc(OS(C)(=O)=O)ccc2C1=O 70.8 µM [inhibitor, partial curve, poor fit]
NCCNc1ccc(C(=O)N2c3ccccc3Sc3ccccc32)cc1[N+](=O)[O-] 11.2 µM [inhibitor, full curve, poor fit]
CCOc1cc(/C=C2/SC(=S)N(CC(=O)O)C2=O)ccc1OC(=O)c1cccs1 79.4 µM [inhibitor, partial curve]
CC1Cn2c(nnc2-c2ccccc2O)S1 (centres undefined) 22.4 µM [inhibitor, single point]
O=C(O)c1cccc(S(=O)(=O)Nc2ccc([N+](=O)[O-])cc2O)c1 31.6 µM [inhibitor, partial curve]

Activity change, negative = inhibition, inactive:
CCNC(=S)N1CCN(c2ccc([N+](=O)[O-])cc2)CC1 -17.8% [at 11.4 µM]

Activity change, negative = inhibition, inconclusive:
COc1ccc(/C=C/C(=O)C23CC4CC(CC(C4)C2)C3)cc1CN1CCOCC1 -55.1% [inhibitor]
